Reference: article PMC4336329 (PLoS ONE, 2015)
Screen size: about 310,000 compounds; about 14,000 (4.5%) showed an effect of 50% or more. Effects have a minus sign here. This is one part of the list.

Molecular target: human ether-à-go-go-related gene (hERG) potassium channel (human, UniProt Q12809)
Assay: primary screen, population patch clamp on CHO cells stably expressing hERG
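Also: peak tail current of the secondary pulse compared with the same well before compound.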

Sequence of human ether-à-go-go-related gene (hERG) potassium channel (Q12809 whole entry, looked up): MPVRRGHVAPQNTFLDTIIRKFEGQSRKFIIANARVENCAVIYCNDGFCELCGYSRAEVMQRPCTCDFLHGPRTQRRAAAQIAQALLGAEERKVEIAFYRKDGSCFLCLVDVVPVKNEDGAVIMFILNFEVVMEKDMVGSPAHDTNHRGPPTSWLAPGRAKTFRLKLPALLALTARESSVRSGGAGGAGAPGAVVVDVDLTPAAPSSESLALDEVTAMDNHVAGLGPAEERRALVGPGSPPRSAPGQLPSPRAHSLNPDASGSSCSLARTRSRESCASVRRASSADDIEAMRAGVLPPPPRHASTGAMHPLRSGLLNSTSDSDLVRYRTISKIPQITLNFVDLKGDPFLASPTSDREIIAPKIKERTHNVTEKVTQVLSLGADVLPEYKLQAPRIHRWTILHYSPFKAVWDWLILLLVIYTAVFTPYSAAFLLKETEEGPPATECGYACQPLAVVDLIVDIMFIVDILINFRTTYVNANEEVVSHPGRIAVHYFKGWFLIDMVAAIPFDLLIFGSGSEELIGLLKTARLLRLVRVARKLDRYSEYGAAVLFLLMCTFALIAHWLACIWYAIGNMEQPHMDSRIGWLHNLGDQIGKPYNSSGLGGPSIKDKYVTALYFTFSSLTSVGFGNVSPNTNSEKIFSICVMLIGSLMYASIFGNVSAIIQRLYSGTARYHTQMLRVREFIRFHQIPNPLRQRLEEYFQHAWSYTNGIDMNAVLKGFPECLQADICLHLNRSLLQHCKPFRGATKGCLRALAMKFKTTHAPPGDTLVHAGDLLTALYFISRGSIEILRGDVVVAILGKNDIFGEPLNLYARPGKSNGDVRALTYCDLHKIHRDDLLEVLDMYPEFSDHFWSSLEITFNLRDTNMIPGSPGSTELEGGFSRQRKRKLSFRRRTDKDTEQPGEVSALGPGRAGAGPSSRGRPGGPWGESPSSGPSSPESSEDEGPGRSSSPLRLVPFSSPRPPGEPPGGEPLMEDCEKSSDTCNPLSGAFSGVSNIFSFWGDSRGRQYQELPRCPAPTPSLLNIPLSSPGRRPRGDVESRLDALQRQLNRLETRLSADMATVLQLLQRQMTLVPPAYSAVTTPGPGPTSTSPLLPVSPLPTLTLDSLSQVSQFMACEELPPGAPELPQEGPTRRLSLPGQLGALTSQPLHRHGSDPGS

In order of rising “hERG current change (%, negative = inhibition) at 10uM” value:
1. Cc1cc(C)n(-c2cc(N3CCN(C(=O)c4cccc(F)c4)CC3)ccc2[N+](=O)[O-])n1  -67.9%
2. CCCCN(CC)Cc1ccc(CNC(=O)Nc2ccc(Cl)cc2)o1  -61.9%
3. Cc1nc(N2CCN(C(=O)c3ccc(Cl)cc3)CC2)c(C#N)c2c1COC(C)(C)C2  -60.8%
4. CCN1CCN(c2ccc(S(=O)(=O)N3CCCCC3)cc2NC(=O)/C=C/c2ccc(F)cc2)CC1  -48.1%
5. CN(Cc1ccccc1)S(=O)(=O)c1ccc(OCC(=O)NCc2ccccn2)cc1  -32.6%
6. COc1ccc(OC)c(NC(=O)CSc2nnc(C)n2Cc2ccccc2)c1  -23.5%
7. COc1ccc(-c2nn(CCC#N)cc2C=C(C#N)C#N)cc1  -17.9%
8. COC/C=C/C1=CC2=CC(=O)C(C)(OC(=O)c3cnc4ccccc4n3)C(=O)C2=CN1c1ccc(CO)cc1 (stereo not drawn)  -15.9%
9. CCCN1CCN(C(=O)c2cc(COc3ccc(F)cc3F)on2)CC1  -12.3%
10. CCOC(=O)C(=CNc1ccc(N2CCOCC2)cc1)C(=O)OCC  -12.3%
11. CCC(C)[C@H](NC(=O)OC(C)(C)C)C(=O)N/N=C/c1cccc2nccnc12 (stereo partly drawn)  -9.82%
12. C=CCSC1=C(C#N)C(c2ccc(C(C)C)cc2)CC(=O)N1 (stereo not drawn)  -8.13%
13. Nn1c(CN2CCCCC2)nc2ccccc2c1=O  -6.71%
14. CCOc1ccc(C(=O)NC(Cc2ccccc2)C(=O)OC)cc1 (stereo not drawn)  -5.71%
15. Cc1cc(SCC(=O)N2CCC(c3noc4ccc(F)cc34)CC2)nc2ccccc12  -4.47%
16. COc1ccc(CC(=O)Nc2ccc(OC(C)=O)cc2C(=O)O)cc1  -3.45%
17. CCCOc1ccc(C(F)(F)F)cc1NC(=O)c1cc(C)on1  -3.07%
18. COc1cccc(NC(=O)NNC(=O)COc2ccc3ccccc3c2)c1  -0.765%
19. COC(=O)Cc1c(C)nc2nc(-c3ccc(Cl)cc3)[nH]n2c1=O  -0.182%
20. Cc1nnc(SCC(=O)NC(C)(C)C)n1C1CCCCC1  0.248%
21. O=C(N/N=C/c1c(O)ccc2ccccc12)c1ccc[n+](CCO)c1.[Cl-]  1.26%
22. CC1(C)CC(=O)C2=C(C1)N(Cc1ccco1)C(=O)C2(NC(=O)C1CCCCC1)C(F)(F)F (stereo not drawn)  1.87%
23. Cc1cc(C)n2ncnc2n1  2.2%
24. COC(=O)c1ccccc1C(=O)N(c1ccccc1)c1ccccc1  3.01%
25. CCOc1ccc(-c2nnc(-c3ccc(OC)cc3)o2)cc1  3.17%
26. Cc1cc(NC(=O)c2cccc(COc3ccc(Br)cc3)c2)no1  3.2%
27. Cc1ccc(/C=N/N2C(=S)SC(C)(C)C2N(O)C(=O)Nc2ccc([N+](=O)[O-])cc2)cc1 (stereo not drawn)  4.55%
28. Cc1cc(OCC(=O)N(C)Cc2ccccc2)ccc1Br  5.12%
29. CCOC(=O)C1CN(S(=O)(=O)c2ccc(C)cc2)C1  5.5%
30. CC(Sc1nc2cc([N+](=O)[O-])ccc2n1-c1ccc(F)cc1)C(=O)NCc1ccc2c(c1)OCO2 (stereo not drawn)  5.65%
31. CCCCCC(=O)Nc1cccc(C2=NOC3(C2)C[C@H](C(N)=O)N(C(=O)CC)C3)c1 (stereo partly drawn)  6.18%
32. Cc1cc(C)c(C(=O)N2CCCC(CNC(=O)C3(c4ccc(Cl)cc4)CC3)C2)c(=O)[nH]1 (stereo not drawn)  6.58%
33. Cc1ccc(C(=O)NCCN(C)C)cc1C  7.22%
34. S=C(NNc1ccnc2cc(Cl)ccc12)Nc1ccccc1Cl  7.3%
35. COc1ccc2oc(C(=O)OCC(=O)Nc3ccc(N4CCOCC4)cc3)c(C)c2c1  8.36%
36. O=C(C[n+]1ccccc1)c1ccc(NC(=O)c2ccccc2)cc1.[I-]  8.42%
37. CCc1cc(=O)oc2c3c(cc(OCC(=O)NCCCOC)c12)OC(C)(C)CC3  8.45%
38. Cc1ccc(OCC(=O)NCCNC(=O)COc2ccc(C)cc2)cc1  9.34%
39. CCOC(=O)N1CCN(C(=O)CCC2CCCC2)CC1  9.89%
40. Cc1ccc2oc(=O)n(CC(=O)N3CCOCC3)c2c1  10%
41. CCOc1ccc(N(C(=O)c2cnccn2)C(C(=O)NC2CCCCC2)c2ccc(O)cc2)cc1 (stereo not drawn)  10.4%
42. O=C(Nc1cccc(OC(=O)c2ccc(Br)o2)c1)c1ccccc1  10.6%
43. CCOc1ccc(C(O)c2nccn2C)cc1 (stereo not drawn)  10.7%
44. O=C(O)COc1ccccc1/C=N/NC(=O)CN1CCN(Cc2ccc(Cl)cc2)CC1  10.7%
45. CC(=O)Nc1ccc(C(=O)OC2CCCCC2=O)cc1 (stereo not drawn)  11.1%
46. Cc1ccccc1NP(=O)(Oc1ccccc1F)Oc1ccccc1F  13.3%
47. CCC(C)(C)C1CCc2[nH]nc(C(=O)NCCCNC(=O)OC(C)(C)C)c2C1 (stereo not drawn)  14.5%
48. Cc1c(CC(=O)O)c(=O)oc2cc3c(cc12)CCC(C)(C)O3  19.1%
49. Cc1ccc(S(=O)(=O)N2CC(C)N(C(=O)N3CCOCC3)C2)cc1 (stereo not drawn)  19.4%
50. CC1(C)CC(=O)c2cc(NC(=O)c3ccccc3)c(=O)oc2C1  19.6%
51. CSc1nc(Oc2ccc3ccccc3c2)c2ccccc2n1  20.4%
52. CC1(c2ccccc2)NCCN2C(=O)CSC21.Cl (stereo not drawn)  20.5%
53. c1csc(C(c2nnnn2C2CCCCC2)N2CCCC3(CCCCC3)C2)c1 (stereo not drawn)  22.5%
54. CC(=O)NCCOc1nc(N(C)C)nc(N(C)C)n1  22.5%
55. COc1ccc(-n2cccc2C=O)cc1OC  24.6%
56. COC(=O)c1ccc(NC(=S)Nc2ccc3ccccc3c2)cc1  26.9%
57. O=C(O)C1CC=CCC1C(=O)Nc1cccc([N+](=O)[O-])c1 (stereo not drawn)  28.3%
